# From the supplement of paper PMC8728848
# The other results are listed elsewhere or left out.
# Columns and labels:
# Assay in all cases: glycan array binding signal (z-score within array); higher = stronger binding
# Conditions in all cases: glycan notation: IUPAC condensed, linker removed
# [1] = biological target: Gal3S(b1-4)Glc
# How it was run: (§1)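 Glycan array data came from 3228 arrays in the Consortium for Functional Glycomics database, and only arrays with an available protein sequence were kept. Glycan names were put into IUPAC-condensed notation, and columns mapping to the same glycan were averaged. The binding signal is a within-array Z-score, averaged across arrays of one protein sequence run at different concentrations or buffers and across linkers. A negative Z-score can be read as non-binding.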
# [2] = biological target: Gal3S(b1-4)Glc6S
# How it was run: as §1
# [3] = biological target: Gal3S(b1-4)GlcNAc
# How it was run: as §1
# [4] = biological target: Gal3S(b1-4)[Fuc(a1-3)]Glc6S
# How it was run: as §1
# [5] = biological target: Gal3S(b1-4)[Fuc(a1-3)]GlcNAc
# How it was run: as §1
# [6] = biological target: Gal3S(b1-4)[Fuc(a1-3)]GlcNAc6S
# How it was run: as §1
# [7] = biological target: Gal3S4S(b1-4)GlcNAc
# How it was run: as §1
# [8] = biological target: Gal3S6S(b1-4)GlcNAc
# How it was run: as §1
# [9] = biological target: Gal3S6S(b1-4)GlcNAc6S
# How it was run: as §1
# [10] = biological target: Gal4S(b1-4)GlcNAc
# How it was run: as §1
# [11] = biological target: Gal4S6S(b1-4)GlcNAc
# How it was run: as §1
# [12] = biological target: Gal6P(b1-4)GlcNAc
# How it was run: as §1
# [13] = biological target: Gal6S(b1-3)GlcNAc
# How it was run: as §1
# [14] = biological target: Gal6S(b1-3)GlcNAc6S
# How it was run: as §1
# [15] = biological target: Gal6S(b1-4)Glc
# How it was run: as §1
# [16] = biological target: Gal6S(b1-4)Glc6S
# How it was run: as §1
# [17] = biological target: Gal6S(b1-4)GlcNAc
# How it was run: as §1
# [18] = biological target: Gal6S(b1-4)GlcNAc6S
# How it was run: as §1
# [19] = biological target: GalNAc(a1-3)Gal
# How it was run: as §1
# [20] = biological target: GalNAc(a1-3)GalNAc
# How it was run: as §1
# [21] = biological target: GalNAc(a1-3)GalNAc(b1-3)Gal(a1-4)Gal(b1-4)Glc
# How it was run: as §1
# [22] = biological target: GalNAc(a1-3)GalNAc(b1-3)Gal(a1-4)Gal(b1-4)GlcNAc
# How it was run: as §1
# [23] = biological target: GalNAc(b1-3)Gal
# How it was run: as §1
# [24] = biological target: GalNAc(b1-3)Gal(a1-4)Gal(b1-4)GlcNAc
# How it was run: as §1
# [25] = biological target: GalNAc(b1-3)Gal(a1-4)Gal(b1-4)GlcNAc(b1-3)Gal(b1-4)Glc
# How it was run: as §1
# [26] = biological target: GalNAc(b1-3)Gal(a1-6)Gal(b1-4)Glc
# How it was run: as §1
# [27] = biological target: GalNAc(b1-3)GalNAc
# How it was run: as §1
# [28] = biological target: GalNAc(b1-3)GlcNAc
# How it was run: as §1
# [29] = biological target: GalNAc(b1-4)Gal(b1-4)Glc
# How it was run: as §1
# [30] = biological target: GalNAc(b1-4)GlcNAc
# How it was run: as §1
binder,measurement,setting,value
"Pa IMPa (Pseudomonas aeruginosa), Q9I5W4 (protein) MSLSTTAFPSLQGENMSRSPIPRHRALLAGFCLAGALSAQAATQEEILDAALVSGDSSQLTDSHLVALRLQQQVERIRQTRTQLLDGLYQNLSQAYDPGAASMWVLPANPDNTLPFLIGDKGRVLASLSLEAGGRGLAYGTNVLTQLSGTNAAHAPLLKRAVQWLVNGDPGAATAKDFKVSVVGVDKTAALNGLKSAGLQPADAACNALTDASCASTSKLLVLGNGASAASLSATVRARLQAGLPILFVHTNGWNQSSTGQQILAGLGLQEGPYGGNYWDKDRVPSSRTRTRSVELGGAYGQDPALVQQIVDGSWRTDYDWSKCTSYVGRTTCDDVPGLSDFSKRVDVLKGALDAYNQKAQNLFALPGTTSLRLWLLWADAVRQNIRYPMDKAADTARFQETFVADAIVGYVREAGAAQKELGSYAGQRQQSMPVSGSEETLTLTLPSAQGFTAIGRMAAPGKRLSIRIEDAGQASLAVGLNTQRIGSTRLWNTRQYDRPRFLKSPDIKLQANQSVALVSPYGGLLQLVYSGATPGQTVTVKVTGAASQPFLDIQPGEDSSQAIADFIQALDADKADWLEIRSGSVEVHAKVEKVRGSIDKDYGGDVQRFIRELNEVFIDDAYTLAGFAIPNQAKTPAIQQECAARGWDCDSETLHKLPGTQHINVDQYAQCGGGCSGNPYDQTWGLNPRGWGESHELGHNLQVNRLKVYGGRSGEISNQIFPLHKDWRVLREFGQNLDDTRVNYRNAYNLIVAGRAEADPLAGVYKRLWEDPGTYALNGERMAFYTQWVHYWADLKNDPLQGWDIWTLLYLHQRQVDKSDWDANKAALGYGTYAQRPGNSGDASSTDGNDNLLLGLSWLTQRDQRPTFALWGIRTSAAAQAQVAAYGFAEQPAFFYANNRTNEYSTVKLLDMSQGSPAWPFP",glycan array binding signal (z-score),[1],-0.329
same,glycan array binding signal (z-score),[2],-0.21
same,glycan array binding signal (z-score),[3],-0.456
same,glycan array binding signal (z-score),[4],-0.212
same,glycan array binding signal (z-score),[5],0.065
same,glycan array binding signal (z-score),[6],0.344
same,glycan array binding signal (z-score),[7],0.552
same,glycan array binding signal (z-score),[8],-0.085
same,glycan array binding signal (z-score),[9],0.617
same,glycan array binding signal (z-score),[10],-0.002
same,glycan array binding signal (z-score),[11],0.667
same,glycan array binding signal (z-score),[12],-0.196
same,glycan array binding signal (z-score),[13],1.34
same,glycan array binding signal (z-score),[14],0.532
same,glycan array binding signal (z-score),[15],-0.194
same,glycan array binding signal (z-score),[16],0.198
same,glycan array binding signal (z-score),[17],0.036
same,glycan array binding signal (z-score),[18],0.936
same,glycan array binding signal (z-score),[19],-0.34
same,glycan array binding signal (z-score),[20],-0.421
same,glycan array binding signal (z-score),[21],-0.1
same,glycan array binding signal (z-score),[22],-0.478
same,glycan array binding signal (z-score),[23],-0.522
same,glycan array binding signal (z-score),[24],-0.273
same,glycan array binding signal (z-score),[25],0.987
same,glycan array binding signal (z-score),[26],0.025
same,glycan array binding signal (z-score),[27],-0.268
same,glycan array binding signal (z-score),[28],-0.214
same,glycan array binding signal (z-score),[29],0.113
same,glycan array binding signal (z-score),[30],-0.367
